Experimental data taken from the supplement of paper PMC4967469.
Lines with a small IC50 respond at low doses; a limit (>, <) means that the fit lies beyond the doses tested. AUC, from the same fit, is the share of area under the viability curve across the 256-fold dose range; it is 1 without any effect and falls as sensitivity rises. Where the top dose is marked as inferred, it is not printed in the source and was worked back from the curve model.

Compound: O=C1NC(=NCc2cccs2)S/C1=C\c1ccc2ncccc2c1 [RO-3306]
Test: Viability of human cancer cell lines after 72 h of drug (GDSC screen)
Conditions: top dose 5 µM; top dose inferred
Method: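 Human cancer cell lines in 384-well plates, medium with 10% serum, drug for 72 h over a 256-fold dose range (nine 2-fold or five 4-fold steps up to the top dose). Adherent lines were fixed and stained with the nucleic acid dye Syto60, suspension lines read with resazurin; signal relative to control wells, capped at 0 and 100%. One two-parameter sigmoid per drug and line, fitted in a mixed model over all curves with the slope shared within a line.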

Cell Line | AUC | IC50
NCI-SNU-1 (stomach, suspension) | 0.972 | > 5 µM
NCI-SNU-5 (stomach, suspension) | 0.982 | > 5 µM
NCI-SNU-16 (stomach, suspension) | 0.988 | > 5 µM
NEC8 (testis, adherent) | 0.857 | 3.11 µM
NH-12 (neuroblastoma, adherent) | 0.98 | > 5 µM
NKM-1 (acute myeloid leukaemia, suspension) | 0.949 | > 5 µM
NMC-G1 (glioma, adherent) | 0.982 | > 5 µM
NOMO-1 (acute myeloid leukaemia, suspension) | 0.92 | > 5 µM
NOS-1 (osteosarcoma, adherent) | 0.968 | > 5 µM
NU-DUL-1 (B-cell lymphoma, suspension) | 0.98 | > 5 µM
NUGC-3 (stomach, adherent) | 0.968 | > 5 µM
NUGC-4 (stomach, adherent) | 0.971 | > 5 µM
NY (osteosarcoma, adherent) | 0.846 | 3.58 µM
OACM5-1 (oesophagus, semi-adherent) | 0.986 | > 5 µM
OACp4C (oesophagus, adherent) | 0.926 | > 5 µM
OAW-28 (ovary, adherent) | 0.919 | > 5 µM
OAW-42 (ovary, adherent) | 0.938 | > 5 µM
OC-314 (ovary, adherent) | 0.991 | > 5 µM
OCI-AML2 (acute myeloid leukaemia, suspension) | 0.995 | > 5 µM
OCI-AML3 (acute myeloid leukaemia, suspension) | 0.989 | > 5 µM
OCI-AML5 (acute myeloid leukaemia, suspension) | 0.989 | > 5 µM
OCI-LY7 (B-cell lymphoma, suspension) | 0.881 | 2.78 µM
OCI-LY-19 (B-cell lymphoma, suspension) | 0.981 | > 5 µM
OCI-M1 (acute myeloid leukaemia, suspension) | 0.994 | > 5 µM
OCUB-M (breast, adherent) | 0.972 | > 5 µM
OCUM-1 (stomach, adherent) | 0.904 | > 5 µM

Cell Line | AUC | IC50
OE19 (oesophagus, adherent) | 0.982 | > 5 µM
OE21 (oesophagus, adherent) | 0.862 | > 5 µM
OE33 (oesophagus, adherent) | 0.984 | > 5 µM
OMC-1 (cervix, adherent) | 0.946 | > 5 µM
ONS-76 (medulloblastoma, adherent) | 0.931 | > 5 µM
OPM-2 (myeloma, suspension) | 0.994 | > 5 µM
OS-RC-2 (kidney, adherent) | 0.959 | > 5 µM
OSC-19 (head and neck, adherent) | 0.943 | > 5 µM
OSC-20 (head and neck, adherent) | 0.884 | > 5 µM
OV-7 (ovary, adherent) | 0.969 | > 5 µM
OV-17R (ovary, adherent) | 0.923 | > 5 µM
OV-56 (ovary, adherent) | 0.981 | > 5 µM
OV-90 (ovary, adherent) | 0.962 | > 5 µM
OVCA420 (ovary, adherent) | 0.968 | > 5 µM
OVCA433 (ovary, adherent) | 0.948 | > 5 µM
OVCAR-3 (ovary, adherent) | 0.962 | > 5 µM
OVCAR-4 (ovary, adherent) | 0.911 | > 5 µM
OVCAR-5 (ovary, adherent) | 0.915 | > 5 µM
OVCAR-8 (ovary, adherent) | 0.984 | > 5 µM
OVISE (ovary, adherent) | 0.969 | > 5 µM
OVK-18 (ovary, adherent) | 0.868 | > 5 µM
OVKATE (ovary, adherent) | 0.969 | > 5 µM
OVMIU (ovary, adherent) | 0.969 | > 5 µM
OVTOKO (ovary, adherent) | 0.938 | > 5 µM
P12-ICHIKAWA (T-cell lymphoblastic leukaemia, suspension) | 0.987 | > 5 µM
